{"source": "PubChem BioAssay AID2546", "about": "(National Center for Advancing Translational Sciences (NCATS), 2010)", "note": "Among all 310,000 compounds or so, about 11,000 (3.5%) were called active. The shares of active, inactive and inconclusive entries below differ from those in the screen. Calls follow the shape of the dose curve; as a rule, active = well fitted inhibition curve with a large enough effect; inconclusive = small, poorly fitted or top-dose-only effect, or effect the other way; inactive = flat fitted curve, though single readings scatter. No potency is given beside an inconclusive call; the fits are too rough. % is scaled to controls: 0 for no effect and ±100 for the full control effect; potency is read from the fitted curve at half-maximal effect; tags tell the direction and shape of the fitted curve.", "data": [{"experiment": "VP16 counterscreen qHTS for inhibitors of ROR gamma transcriptional activity;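 also: Gal4-VP16 expression switched on by copper sulfate through the metallothionein promoter; nearly all actives have a fitted effect of over 50% in size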", "conditions": "Drosophila S2 Gal4-VP16 UAS-luciferase, luminescence, 20 h; activity, negative = inhibition: at 53.6 µM (top of the series)", "values": [{"smiles": "O=C(CCCCCN1C(=O)c2ccccc2C1=O)Nc1ccc(S(=O)(=O)N2CCCCC2)cc1", "Potency": "inconclusive [inhibitor, single point]"}, {"smiles": "CC(=O)Nc1ccc(S(=O)(=O)N2C(=O)c3cccc4cccc2c34)cc1", "activity, negative = inhibition": "inactive: -0.442%"}, {"smiles": "O=C(CCCn1cc([N+](=O)[O-])cn1)Nc1ccc2c(c1)OCO2", "activity, negative = inhibition": "inactive: -4.11%"}, {"smiles": "CC(=O)Nc1sc2c(c1C(c1cccc(Cl)c1)N1CCN(CCO)CC1)CCCC2", "note": "(centres undefined)", "Potency": "inconclusive [inhibitor, single point]"}, {"smiles": "CCn1c(-c2csc3c2CCCC3)n[nH]c1=S", "Potency": "active: 4.47 µM"}, {"smiles": "NC(=O)c1nsc(C(=O)N(CC(=O)NC2CCCC2)c2cccc(C(F)(F)F)c2)c1N", "activity, negative = inhibition": "inactive: -9.76%"}, {"smiles": "CCNc1nc(CSc2ccccc2)nc2sc(C)c(C)c12", "Potency": "active: 5.01 µM"}, {"smiles": "Cc1cccc(NC(=S)NC(=O)c2cccs2)n1", "Potency": "inconclusive [inhibitor, single point]"}, {"smiles": "CN(C)/C=C(/C(=O)c1ccc(Cl)c(Cl)c1)c1nnnn1-c1ccccc1", "Potency": "inconclusive [inhibitor, single point]"}, {"smiles": "CC(C)C(=O)N1CCC(c2nc(-c3ccc(S(=O)(=O)N4CCCC4)cc3)no2)CC1", "Potency": "inconclusive [inhibitor, single point]"}, {"smiles": "S=c1[nH]nc(-c2cccs2)n1/N=C/c1cn(-c2ccccc2)nc1-c1cccs1", "Potency": "inconclusive [inhibitor, single point]"}, {"smiles": "CCn1cnc2scc(-c3ccc(C)c(C)c3)c2c1=O", "Potency": "inconclusive [activator, single point]"}, {"smiles": "CCC(=O)N1CCCc2cc(S(=O)(=O)N3CCN(c4ccccc4F)CC3)ccc21", "Potency": "inconclusive [inhibitor, single point]"}, {"smiles": "Cc1csc(NC(=O)c2ccc(S(=O)(=O)N3CCN(C)CC3)cc2)n1", "Potency": "inconclusive [activator, single point]"}, {"smiles": "Cc1ccc(NS(=O)(=O)c2ccc(-c3coc(C)n3)cc2)c(C)c1", "Potency": "inconclusive [inhibitor, single point]"}, {"smiles": "CCC/C=C(\\CCC)C(NP(=O)(c1ccccc1)c1ccccc1)c1ccc(C(F)(F)F)cc1", "note": "(centres undefined)", "Potency": "inconclusive [inhibitor, partial curve]"}, {"smiles": "Cc1ccc(CCNC(=O)c2nn(C)c3c2CS(=O)(=O)c2ccccc2-3)cc1", "activity, negative = inhibition": "inactive: -9.95%"}, {"smiles": "CCOc1cc(/C=N\\Nc2ncc(F)c(N3CCOCC3)n2)ccc1Oc1nc(Cl)ncc1F", "Potency": "inconclusive [inhibitor, single point]"}, {"smiles": "COc1ccc(CCNC(=O)C2CCN(C(=O)c3ccc(C(C)(C)C)cc3)CC2)cc1OC", "activity, negative = inhibition": "inactive: 14.1%"}, {"smiles": "Cc1cc(C)c(S(=O)(=O)/N=C2\\C=C(Nc3ccc(C(=O)O)cc3)C(=O)c3ccccc32)c(C)c1", "Potency": "active: 10 µM"}, {"smiles": "CCCC(=O)NC(c1ccc(C(C)C)cc1)c1ccc2cccnc2c1O", "note": "(centres undefined)", "Potency": "active: 2.82 µM"}, {"smiles": "CCOC(=O)C1(CC/C(C)=N\\NC(N)=O)CC(C)(C)OC1=O", "note": "(centres undefined)", "Potency": "inconclusive [inhibitor, single point]"}, {"smiles": "Cc1nn(Cc2ccc(C(=O)Nc3ccccc3C(F)(F)F)o2)c(C)c1Br", "Potency": "inconclusive [inhibitor, single point]"}, {"smiles": "COc1ccc(C)cc1NC(=O)C/C(C)=N/NC(=O)Cc1cccc2ccccc12", "Potency": "inconclusive [inhibitor, single point]"}, {"smiles": "CNc1nc(C#N)nc(Nc2ccccc2)n1", "Potency": "inconclusive [activator, single point]"}, {"smiles": "COc1cc(COc2ccc3c(C)c(Cc4ccccc4)c(=O)oc3c2C)cc(OC)c1OC", "activity, negative = inhibition": "inactive: -4.26%"}, {"smiles": "Cc1ccc(SCC(=O)Nc2c(Br)cnn2C)cc1", "Potency": "inconclusive [inhibitor, single point]"}, {"smiles": "N=C(N)c1ccc(OCCCCCOc2ccc(C(=N)N)cc2)cc1", "Potency": "inactive"}, {"smiles": "Cc1nn(-c2ccccc2)c(N2CCCC2)c1/C=N/NC(=S)Nc1ccccc1C(F)(F)F", "Potency": "active: 1 µM"}, {"smiles": "COc1ccc(-c2nn(-c3ccccc3)cc2C(=O)Nc2nc(CC(C)=O)ns2)cc1", "Potency": "active: 12.6 µM"}, {"smiles": "Oc1ccc(N=C/C=C/c2cccc(Br)c2)cc1-c1nc2ccccc2s1", "Potency": "active: 7.94 µM"}, {"smiles": "Cc1ccc(NC(=O)CN(C)Cc2nc3ccccc3c(=O)[nH]2)c(Br)c1", "Potency": "inconclusive [inhibitor, single point]"}, {"smiles": "NC1=NN=C(c2ccc3c(c2)OCCO3)CS1", "Potency": "active: 10 µM"}, {"smiles": "C[n+]1c2n(c3ccccc31)N=C(c1ccc(Br)cc1)CS2", "activity, negative = inhibition": "inactive: -3.15% [at 0.365 µM]"}, {"smiles": "Clc1ccc(/C=N/Nc2ccccn2)cc1", "Potency": "inconclusive [inhibitor, single point]"}, {"smiles": "Cc1cnn(CCC(=O)NNC(=S)Nc2ccc(F)cc2)c1", "Potency": "active: 2.82 µM"}, {"smiles": "Cc1ccc(N/N=C(/Sc2nnnn2-c2ccccc2)C(=O)c2ccccc2)cc1", "Potency": "inconclusive [inhibitor, single point]"}, {"smiles": "O=C(c1cc2c([nH]c1=O)CCCC2)N1CCc2c([nH]c3ccccc23)C1c1ccccc1F", "note": "(centres undefined)", "activity, negative = inhibition": "inactive: -10.1%"}, {"smiles": "Cc1cc(OC(=O)c2c(Cl)cccc2Cl)nc(C)n1", "Potency": "inconclusive [activator, single point]"}, {"smiles": "CCN(CC)CCN1C(=O)C(=O)/C(=C(/O)c2c(C)[nH]c(C(=O)OC)c2C)C1c1cccnc1", "note": "(centres undefined)", "Potency": "inconclusive [inhibitor, partial curve]"}, {"smiles": "CCN(CCn1cccn1)C(=O)CCc1nnc(C2(c3ccc(Cl)cc3)CCC2)o1", "Potency": "inconclusive [activator, full curve, poor fit]"}, {"smiles": "O=C(/C=C/c1ccc(Cl)cc1)N(Cc1cccs1)C1CCS(=O)(=O)C1", "note": "(centres undefined)", "Potency": "inconclusive [activator, single point]"}, {"smiles": "O=C(Cn1cc(SCc2ccc(F)cc2)c2ccccc21)N1CCOCC1", "Potency": "inconclusive [activator, full curve, poor fit]"}, {"smiles": "CCn1c(SCC(=O)Nc2ncc(C(F)(F)F)cc2Cl)nnc1-c1ccccc1", "Potency": "inconclusive [inhibitor, partial curve]"}]}]}
